Our source for the cytotoxicity call and growth inhibition call values is the antibiotic and cytotoxicity screens of Wong et al. (2023).

For one experiment, the system named is HSkMC. In words: cytotoxicity call (relative viability < 0.9). As to conditions: 10 µM.
A further experiment has as its system HepG2. In words: cytotoxicity call (relative viability < 0.9). Particulars: 10 µM.
In the next experiment the test system is S. aureus RN4220. Nature of the experiment: growth inhibition call (relative growth <= 0.2). Particulars: 50 µM.

The other results are listed elsewhere or left out.

Turning to `O=C(C[C@@H]1CC[C@@H]2[C@H](COC[C@H](O)CN2C(=O)Nc2ccc(C(F)(F)F)cc2)O1)NCCc1ccncc1`, the cytotoxicity call with HSkMC and with HepG2 was “inactive” each time. Moreover, the growth inhibition call in the experiment on S. aureus RN4220 was “inactive”.

As for `CO[C@@H]1CN(C)C(=O)c2cc(NC(=O)c3ccc(F)cc3)ccc2OC[C@@H](C)N(C(=O)CN(C)C)C[C@H]1C`, the cytotoxicity call in the experiment with HSkMC and in the experiment with HepG2 was “inactive” in each case. In addition, in the experiment with S. aureus RN4220, the growth inhibition call was “inactive”.

Consider `Cc1cnc(C(=O)O)c[n+]1[O-]`, for which the cytotoxicity call in the experiment with HSkMC and in the experiment with HepG2 was “inactive” throughout. Further, the growth inhibition call in the experiment on S. aureus RN4220 was “inactive”.

Consider `CC(C)NC(=O)Nc1ccc2c(c1)C(=O)N([C@H](C)CO)C[C@@H](C)[C@@H](CN(C)C(=O)Nc1ccc(C(F)(F)F)cc1)OCCCC[C@@H](C)O2`, for which, in the experiment with HSkMC, the cytotoxicity call is “inactive”. The cytotoxicity call with HepG2 is “active”. For the same compound, the growth inhibition call with S. aureus RN4220 is “inactive”.

Consider `COc1ccc(NC(=O)Nc2ccc3c(c2)C(=O)N([C@@H](C)CO)C[C@@H](C)[C@@H](CN(C)Cc2ccncc2)OCCCC[C@@H](C)O3)cc1`, for which the cytotoxicity call in the experiment on HSkMC and in the experiment with HepG2 was “inactive” throughout. In addition, in the experiment on S. aureus RN4220, the growth inhibition call was “inactive”.

Consider `COc1ccc(S(=O)(=O)Nc2cccc3c2O[C@@H](CN(C)S(=O)(=O)c2cccs2)[C@H](C)CN([C@H](C)CO)C3=O)cc1`, for which the cytotoxicity call in the experiment with HSkMC and with HepG2 was “inactive” in each case. In addition, in the experiment with S. aureus RN4220, the growth inhibition call is “inactive”.

For the compound `C[C@H]1CCCN(S(=O)(=O)CCN)C1`, the cytotoxicity call in the experiment on HSkMC and in the experiment on HepG2 was “inactive” throughout. Moreover, the growth inhibition call with S. aureus RN4220 is “inactive”.

Take `C[C@H]1CNCCO1`: the cytotoxicity call with HSkMC and with HepG2 was “inactive” each time. For the same compound, the growth inhibition call in the experiment on S. aureus RN4220 was “inactive”.

As to `C[C@H](CO)N1C[C@H](C)[C@H](CN(C)Cc2ccc(C(F)(F)F)cc2)Oc2ccc(NC(=O)NC3CCCCC3)cc2CC1=O`, the cytotoxicity call in the experiment on HSkMC (human skeletal muscle cells) and in the experiment on HepG2 was “inactive” in each case. The growth inhibition call in the experiment on S. aureus RN4220 is “inactive”.
